Hit rate of the full screen: of about 340,000 compounds, about 6,900 (2%) were called active. No stated cut-off is given here; in the data, active means inhibition above about 30%; inactive means below that, where a call was filed. The list shows a part of the results, in another mix than the full data. Entries without a call were filed so in the source.
Each molecule was assayed against D(2) dopamine receptor (Homo sapiens) (UniProt P14416) (assay: HTS Assay for Allosteric Antagonists of the Human D2 Dopamine Receptor: Primary Screen for Antagonists). Conditions: HEK293 TREx D2 cells, calcium flux, dopamine EC80; at 10 µM; stronger effect = higher value.
Chain of UniProt P14416 (P14416 whole entry, looked up): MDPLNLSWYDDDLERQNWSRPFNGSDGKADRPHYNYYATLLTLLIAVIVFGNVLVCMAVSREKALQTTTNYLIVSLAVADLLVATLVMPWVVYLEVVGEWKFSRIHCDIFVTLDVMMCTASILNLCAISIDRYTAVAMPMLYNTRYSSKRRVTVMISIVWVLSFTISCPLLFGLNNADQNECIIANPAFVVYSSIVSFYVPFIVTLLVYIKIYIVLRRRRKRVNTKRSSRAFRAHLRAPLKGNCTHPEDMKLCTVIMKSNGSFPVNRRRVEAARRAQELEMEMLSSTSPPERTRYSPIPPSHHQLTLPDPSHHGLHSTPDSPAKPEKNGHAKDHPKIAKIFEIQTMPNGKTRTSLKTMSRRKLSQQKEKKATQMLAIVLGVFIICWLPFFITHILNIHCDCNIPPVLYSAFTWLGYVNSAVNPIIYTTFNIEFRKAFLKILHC
In short: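 Measurement of antagonist activity uses fluorescent calcium dye in inducible HEK293 T-REx D2 cells: 10 s baseline, compound addition with 180 s read, EC80 dopamine addition with a further 180 s read.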
`Cc1cc2oc(=O)c(CC(=O)NCCc3ccccc3F)c(C)c2c2occ(C(C)(C)C)c12` was tested, and the inhibition was 3.32%.
In the case of `CCOC(=O)c1c(NC(=O)c2ccc(OCC)c(Br)c2)sc2c1CCCC2`, the inhibition is reported as 8.77%.
`CCCCN(C(=O)C1CCC(CNS(=O)(=O)c2cccc3nsnc23)CC1)c1ccccc1` (stereo unspecified) was tested, and the inhibition was 16%.
For `CC(=O)Nc1ccc(NC(=O)CN(C)S(=O)(=O)c2ccc3c(c2)CCCC(=O)N3)cc1`, the inhibition was 3.91%.
For `O=c1c2cc3c(cc2nc2sc(Nc4cccc([N+](=O)[O-])c4)nn12)OCO3`, the inhibition was -12.5%.
With `Cc1ccc(C)c(S(=O)(=O)c2nnn3c2nc(N2CCN(C)CC2)c2sccc23)c1` the inhibition was 1.98%.
For `CCc1c(C)c2cc3c(c(C)c2oc1=O)OCN(CCc1ccccc1F)C3`, the inhibition was 5.28%.
Molecule `O=C(CSc1nc2ccccc2nc1Cc1ccc(Cl)cc1)N1CCN(c2ccccc2)CC1` has an inhibition of -8.2%.
`Cc1ccc(-n2ncc(C(=O)NCc3ccco3)c2C2CCN(C(=O)OC(C)(C)C)CC2)cc1C` was tested, and the inhibition was 1.69%.
Molecule `COc1cc(NC(=O)c2cc3cc4ccc(C)cc4nc3o2)cc(OC)c1OC` has an inhibition of 10%.
Molecule `O=C(c1ccc2c(c1)N(Cc1ccc(F)cc1)C(=O)c1ccccc1S2(=O)=O)N1CCCCC1` has an inhibition of -6.87%.
Work on `Cc1ccc(-c2nn3c(C)nnc3c3ccccc23)cc1S(=O)(=O)NCC(C)O` (stereo unspecified) yielded an inhibition of 1.07%.
`CC(C)Cc1cc(CN2CCC(CO)(Cc3ccccc3)CC2)[nH]n1` was tested, and the inhibition was active: 47.4%.
`NC(=O)c1cc(S(=O)(=O)N2CCN(c3cccc(C(F)(F)F)c3)CC2)cs1` showed an inhibition of -3.26%.
`COc1cc(NC(=O)CSc2c3c(nc4ccccc24)CCC3)cc(OC)c1OC` was tested, and the inhibition was -2.08%.
For `CCC(=O)N1CCc2cc(S(=O)(=O)NCCC(=O)Nc3ccc(N(CC)CC)cc3C)ccc21`, the inhibition was 18%.
With `CCN(CC)S(=O)(=O)c1ccc(C(=O)NCCSc2c(-c3ccccc3)[nH]c3ccccc23)cc1` the inhibition was -7.39%.
In the case of `Cc1cc(C)cc(NC(=O)Cc2noc3ccccc23)c1`, the inhibition is reported as 15%.
Work on `O=C(c1ccccc1)N1c2nc(-c3ccco3)nn2C2(CCCCC2)[C@@H]2CCCC[C@@H]21` yielded an inhibition of -3.76%.
With `Cc1ccc(C2CC(c3ccccc3)=NN2c2ccccc2)o1` (stereo unspecified) the inhibition was active: 35.6%.
In the case of `Cc1ccccc1OCc1ccc(-c2nc(C#N)c(N3CCN(c4cccc(Cl)c4)CC3)o2)o1`, the inhibition is reported as 7.41%.
Molecule `Cc1cc(C)cc(NC(=O)C(Cc2ccccc2)NS(=O)(=O)c2ccc3c(c2)CCC(=O)N3)c1` (stereo unspecified) has an inhibition of -16.4%.
Molecule `CCOc1ccccc1NC(=O)C(=O)Nc1ccc2nc3n(c(=O)c2c1)CCCCC3` has an inhibition of 0.678%.
For `OCc1cnc(SCc2ccccc2F)n1Cc1ccc(F)cc1`, the inhibition was 2.79%.
`CCCOc1ccc(CNC(=O)C(NS(=O)(=O)c2cccs2)C(C)C)cc1` (stereo unspecified) gave an inhibition of 11.5%.
`COc1cc(Cl)c(C)cc1NC(=O)c1cnc(N2CCCCC2)c2ccccc12` was tested, and the inhibition was -6.23%.
`COc1cc2nc(SCc3ccc(C)cc3)n3nc(CCn4nc(C)cc4C)nc3c2cc1OC` showed an inhibition of 18.3%.
`CC(C)Cn1c(-c2cccc(Br)c2)nc2ccccc21` gave an inhibition of 5.09%.
`COC(=O)C(CCSC)Nc1ncnc2onc(-c3ccc(F)cc3)c12` (stereo unspecified) was tested, and the inhibition was -3.15%.
`Cc1ccc(CNC(=O)C(=O)NCC(c2ccc3c(c2)OCO3)N2CCOCC2)cc1` (stereo unspecified) showed an inhibition of 20.1%.
`CCOC(=O)C1(C)C=C(Nc2cccc(C(=O)O)c2)C(=O)N1c1ccccc1` (stereo unspecified) showed an inhibition of 20.2%.
In the case of `CC1Cc2ccccc2N1C(=O)Cn1cc([N+](=O)[O-])cn1` (stereo unspecified), the inhibition is reported as active: 38.7%.
In the case of `Cc1ccc2c(=O)cc(C(=O)Nc3c(C)n(C)n(-c4ccccc4)c3=O)oc2c1`, the inhibition is reported as 17.3%.
For `Cc1n[nH]c(C)c1S(=O)(=O)N1CCC(C(=O)N2CCn3c2nc2ccccc23)CC1`, the inhibition was active: 39.3%.
With `COc1ccccc1N1CCN(C(=O)C2CCCN(S(=O)(=O)c3ccc4c(c3)CCCN4C(C)=O)C2)CC1` (stereo unspecified) the inhibition was 3.43%.
In the case of `Cc1ccc(Nc2ncnc3sc4c(c23)CCC(C)C4)cc1C` (stereo unspecified), the inhibition is reported as -7.48%.
For `Cc1ccc(NC(=O)c2ccc(NC(=O)CCS(=O)(=O)c3cccs3)cc2)cc1F`, the inhibition was -0.276%.
`Cc1ccc(S(=O)(=O)N(C)C)cc1NC(=O)CN1c2cccc3cccc(c23)S1(=O)=O` was tested, and the inhibition was active: 37%.
Molecule `COc1cccc(Cn2cc(C(=O)c3ccc(Cl)cc3)c(=O)c3ccccc32)c1` has an inhibition of -17.5%.
`Cc1ccccc1Nc1c(-c2ccc(N3CCOCC3)cc2)nc2ccc(Br)cn12` gave an inhibition of -9.15%.
`O=C(CCN1C(=O)COc2ccccc21)NCCCN1CCN(c2ccccc2F)CC1` was tested, and the inhibition was active: 82%.
Work on `CCSc1ncc(Cl)c(C(=O)Nc2cccc(Cl)c2)n1` yielded an inhibition of 5.97%.
In the case of `CNC(=O)CN1C(=O)COc2ccc(S(=O)(=O)N3CCC(C)CC3)cc21`, the inhibition is reported as 6.99%.
`COCCNC(=O)c1ccccc1NC(=O)c1nsc2ccccc12` gave an inhibition of -13.7%.
Work on `Cc1ccc(-n2cnnn2)cc1S(N)(=O)=O` yielded an inhibition of -6.81%.
Molecule `COc1ccc2[nH]cc(CCN=C(NC(=O)c3ccccc3OC)Nc3nc(C)cc(C)n3)c2c1` has an inhibition of 6.89%.
With `Cc1cc2[nH]c(=O)c(=O)[nH]c2cc1S(=O)(=O)N1CCN(c2cccc(Cl)c2)CC1` the inhibition was 1.61%.
Work on `COC(=O)Cn1c(SCCOc2ccccc2OC)nc2ccccc21` yielded an inhibition of -3.56%.
With `CN1C(=O)C2(C(C#N)=C(N)N(c3cc(Cl)cc(Cl)c3)C3=C2C(=O)CC(C)(C)C3)c2ccccc21` (stereo unspecified) the inhibition was active: 33.1%.
`Cc1nc2cccnc2n1C1CCN(C(=O)Nc2ccc(Cl)cc2)CC1` was tested, and the inhibition was 3.13%.
Work on `CCc1c(C)sc2c1CCN(Cc1ccccc1F)C2c1ccccc1` (stereo unspecified) yielded an inhibition of -7.49%.
Work on `CCOc1ccc(-c2c(C)nn3c(C)c(C(=O)NCCc4ccc(C)cc4)cnc23)cc1OCC` yielded an inhibition of -10.8%.
`COC(=O)Cc1c(C)c2ccc3c(c2oc1=O)CN(Cc1ccccc1Cl)CO3` gave an inhibition of -4.64%.
In the case of `O=C(NCCSc1c[nH]c2ccccc12)c1ccccc1Cl`, the inhibition is reported as -10.5%.
For `c1ccc(-c2cc3n(c2)CCc2ccccc2-3)cc1`, the inhibition was active: 33.1%.
For `Cc1cccc(-n2c(=O)c3ccccc3n(Cc3ccc(F)cc3)c2=O)c1`, the inhibition was 16.6%.
With `CCc1ccc(Nc2nc3ccccc3nc2NS(=O)(=O)c2ccccc2)cc1` the inhibition was 1.04%.
`Nc1nc(CN2CCN(c3ccccc3F)CC2)nc(Nc2ccccc2)n1` was tested, and the inhibition was active: 47.3%.
`Cc1cc2c(cc1S(=O)(=O)Nc1cc(C(F)(F)F)cc(C(F)(F)F)c1)OCC(=O)N2` showed an inhibition of -10.9%.
`Cc1ccc(NC(=O)/C=C/c2ccccc2Cl)cc1Cl` was tested, and the inhibition was -22.8%.
Molecule `CCCCOC(=O)c1ccc(NC(=O)c2sc3nc(C)cc(C)c3c2N)cc1` has an inhibition of 4.26%.
In the case of `O=C(Cn1c(=O)nc(-c2ccccc2)c2ccccc21)Nc1ccc(Cl)cc1F`, the inhibition is reported as 13.6%.
`COc1ccc(NC(=O)C2=C(C)Nc3nc(SCc4ccc(Cl)cc4)nn3C2c2cccc(OC)c2OC)cc1` (stereo unspecified) showed an inhibition of -0.783%.
`COc1ccc(N(C)C(=O)Cn2cc(S(=O)(=O)N3CCN(c4ccccc4F)CC3)c3ccccc3c2=O)c(OC)c1` gave an inhibition of 7.48%.
`CC1CCN(c2ccc(-c3cccc(NS(=O)(=O)c4ccc(F)cc4F)c3)nn2)CC1` gave an inhibition of -7.4%.
`CCOC(=O)c1sc(NC(=O)c2c(-c3ccccc3)c(-c3ccccc3)nn(C)c2=O)nc1C` was tested, and the inhibition was 20.3%.
For `CC1CCN(C(=O)CSc2nc(-c3ccc(F)cc3)cc(C(F)(F)F)n2)CC1`, the inhibition was 6.38%.
`CCOC(=O)c1ccc(NC(=O)c2cn3c4c(ccc(Cl)c4c2=O)OC(C)C3)cc1` (stereo unspecified) showed an inhibition of 12.5%.
With `COc1ccc(S(=O)(=O)N2CCN(c3ccccc3OC)CC2)cc1` the inhibition was 7.75%.
Molecule `CCCc1nn2c(=O)cc(COC(=O)CNC(=O)COc3ccc(C)cc3)nc2s1` has an inhibition of -5.21%.
`COc1cc(OC)c(N(C)C(=O)Nc2cn(CC(C)C)c(=O)c3ccccc23)cc1Cl` gave an inhibition of -4.07%.
Molecule `Cc1ccc(-c2nc(C)c(CCNC(=O)c3ccccc3Br)s2)cc1` has an inhibition of 8.61%.
Molecule `COc1ccc(NC2=C(c3ccc(C(F)(F)F)cc3)C(=O)c3ccccc32)cc1` has an inhibition of -7.54%.
For `COc1cccc(NC(=O)CN2C(=O)c3ccccc3Sc3ncccc32)c1`, the inhibition was 12.9%.
`Cc1ccc(-n2nc(C)c3c(C(F)(F)F)cc(-c4cccnc4)nc32)cc1Cl` showed an inhibition of -0.178%.
Work on `COc1ccccc1C(=O)Nc1c(C(=O)NC(C)(C)C)oc2ccccc12` yielded an inhibition of -10.1%.
Work on `CCCN(Cc1cc2cccc(C)c2[nH]c1=O)C(=O)c1cccc(Cl)c1` yielded an inhibition of -4.83%.
In the case of `Cc1cccc(NC(=O)C2CCCN(C(=O)Nc3ccc(F)cc3)C2)c1` (stereo unspecified), the inhibition is reported as active: 31.3%.
For `CCOC(=O)C1(CC2CC2)CCN(Cc2cn(C)c3ccccc23)CC1`, the inhibition was active: 30.3%.
For `Cc1ccc(CSc2cn(CC(=O)N3CCCCCC3)c3ccccc23)cc1`, the inhibition was -11.7%.
Work on `CCOc1ccccc1CNCCCSc1nnnn1C` yielded an inhibition of 7.91%.
`CCOC(=O)c1ccc(NC(=O)CSc2nc3c(c(=O)[nH]2)CN(Cc2ccccc2)CC3)cc1` showed an inhibition of -16.3%.
With `COc1ccc(-n2nc3c(N4CCC(C(=O)NCc5ccccc5C)CC4)nnc(C)c3c2C)cc1` the inhibition was 18.5%.
With `CCOC(=O)N1CCC(NC(=O)c2c(C)nn(-c3cccc(C)c3)c2-n2cccc2)CC1` the inhibition was 5.32%.
With `COc1ccccc1Nc1ncc2c(n1)CCN(Cc1ccc(C)s1)C2` the inhibition was -1.5%.
Molecule `Cc1cc(F)ccc1NC(=O)CCS(=O)(=O)c1cc2c(cc1C)NC(=O)CO2` has an inhibition of -22.7%.
`Cc1ccc2c(=O)c(C(=O)c3cccc(Cl)c3)cn(CC(=O)NC3CCCCC3)c2n1` gave an inhibition of -2.95%.
Molecule `Cc1ccc(N(CC(=O)N2CCN(c3ccc(F)cc3)CC2)S(=O)(=O)c2c(C)noc2C)cc1` has an inhibition of -4.93%.
`CC(C)(C)C(=O)NCCc1nc2ccccc2n1CCCCOc1ccccc1` showed an inhibition of -13.7%.
`CCOc1ccc(C2c3c(-c4cc(C)ccc4O)n[nH]c3C(=O)N2Cc2cccnc2)cc1OCC` (stereo unspecified) gave an inhibition of -0.0778%.
Molecule `COc1ccccc1NC(=O)CC(C)n1nc(C)cc1C` (stereo unspecified) has an inhibition of 14.9%.
With `Cc1ccc(C2=NN(CC(=O)NCCc3ccccc3)C(=O)CC2)cc1` the inhibition was 24.5%.
`Cc1cccc(OC(=O)CSc2nnc(-c3ccc4c(c3)OCO4)o2)c1C` was tested, and the inhibition was 9.52%.
In the case of `Cc1cn(C)c(CC(=O)NCc2ccc(Cl)cc2)c1C(=O)O`, the inhibition is reported as -18%.
`COc1cccc(Cn2c(=O)n(CC3CCC(C(=O)NC(C)C)CC3)c(=O)c3sccc32)c1` (stereo unspecified) showed an inhibition of -5.28%.
`COc1cc(NC(=O)CN2C(=O)CCc3cc(Br)ccc32)cc(OC)c1OC` was tested, and the inhibition was -3.91%.

Source: PubChem BioAssay AID485344 (National Center for Advancing Translational Sciences (NCATS), 2010)
Further: 0% is about no effect.
